Measured values published in paper PMC4336329 (PLoS ONE, 2015).
Among all 310,000 compounds or so, about 14,000 (4.5%) showed an effect of 50% or more. Effects have a minus sign here. The list shows a part of the results.

Molecular target: human ether-à-go-go-related gene (hERG) potassium channel (human, UniProt Q12809)
Test: primary screen, population patch clamp on CHO cells stably expressing hERG
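Note: peak tail current of the secondary pulse compared with the same well before compound.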

human ether-à-go-go-related gene (hERG) potassium channel, sequence (Q12809 whole entry, looked up): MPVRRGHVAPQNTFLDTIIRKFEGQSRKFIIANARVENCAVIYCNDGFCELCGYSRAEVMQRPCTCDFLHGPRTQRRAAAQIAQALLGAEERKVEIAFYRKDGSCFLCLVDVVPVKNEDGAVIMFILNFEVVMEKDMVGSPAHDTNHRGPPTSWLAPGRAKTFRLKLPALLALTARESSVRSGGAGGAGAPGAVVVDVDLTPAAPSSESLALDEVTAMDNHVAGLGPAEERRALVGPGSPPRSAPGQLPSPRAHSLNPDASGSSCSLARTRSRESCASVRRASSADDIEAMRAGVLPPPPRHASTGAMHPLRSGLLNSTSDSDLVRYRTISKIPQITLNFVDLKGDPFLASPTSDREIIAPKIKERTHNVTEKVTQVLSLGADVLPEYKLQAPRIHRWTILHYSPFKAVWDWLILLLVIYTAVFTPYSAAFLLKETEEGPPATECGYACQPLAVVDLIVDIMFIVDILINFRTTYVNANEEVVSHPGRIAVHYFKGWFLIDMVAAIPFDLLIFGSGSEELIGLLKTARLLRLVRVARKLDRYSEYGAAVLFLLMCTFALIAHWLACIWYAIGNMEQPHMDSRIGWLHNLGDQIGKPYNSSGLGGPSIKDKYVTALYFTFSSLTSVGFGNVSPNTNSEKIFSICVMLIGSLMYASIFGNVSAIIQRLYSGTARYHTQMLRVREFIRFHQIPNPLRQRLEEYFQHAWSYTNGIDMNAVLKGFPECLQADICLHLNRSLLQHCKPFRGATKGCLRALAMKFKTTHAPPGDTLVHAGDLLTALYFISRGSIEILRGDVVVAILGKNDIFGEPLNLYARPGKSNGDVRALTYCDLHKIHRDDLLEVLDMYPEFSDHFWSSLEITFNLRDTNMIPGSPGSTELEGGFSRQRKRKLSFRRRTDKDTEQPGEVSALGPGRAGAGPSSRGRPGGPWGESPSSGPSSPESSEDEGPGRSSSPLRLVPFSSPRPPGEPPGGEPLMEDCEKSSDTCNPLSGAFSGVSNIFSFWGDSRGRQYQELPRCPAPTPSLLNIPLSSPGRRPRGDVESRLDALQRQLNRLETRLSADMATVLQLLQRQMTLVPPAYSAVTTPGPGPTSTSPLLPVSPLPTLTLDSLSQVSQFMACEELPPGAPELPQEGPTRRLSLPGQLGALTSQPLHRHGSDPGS

In order of falling “hERG current change (%, negative = inhibition) at 10uM” value:
1. Cc1ccc2nc(-c3ccccn3)cc(C(=O)NCCc3ccc(F)cc3)c2c1  35%
2. COC(=O)/C(=C1/Oc2ccc(C)cc2S1)C(F)(F)F  32.8%
3. Nc1nc(SCC(=O)N2CCOCC2)[nH]c(=O)c1-c1ccccc1  24.6%
4. CCCCCC(=O)NC(=S)NNC(=O)c1ccc([N+](=O)[O-])cc1  24.5%
5. Cc1nnc(N(C)C(=O)c2ccc3c(c2)OCO3)s1  21.9%
6. CSc1ccc(S(=O)(=O)N2CCC(C(=O)NCCc3ccccc3)CC2)cc1  20.9%
7. COc1ccc(C(=O)N/C(=C/c2ccco2)C(=O)NC2CCS(=O)(=O)C2)cc1 (stereo not shown)  20.6%
8. Cc1ccc(N2CC(NS(=O)(=O)c3cccnc3)CC2=O)cc1C (stereo not shown)  19.7%
9. O=C1OC(Nc2ncccn2)c2ccccc21 (stereo not shown)  19.6%
10. O=C(Cc1cccs1)Nc1nc(-c2ccc(F)c(F)c2)cs1  19%
11. O=C(CSc1ccccn1)Nc1ccc2c(c1)C(=O)c1ccccc1C2=O  18.5%
12. CCCCCN1C(=O)/C(=C/c2c(N3CCc4ccccc4C3)nc3ccccn3c2=O)SC1=S  18.4%
13. C/C(=C/C(=O)Nc1cccc(F)c1)N1CCCC1  18.2%
14. COc1ccc(/C=C2\CN(Cc3ccccc3)C/C(=C\c3ccc(OC)cc3OC)C2=O)c(OC)c1  17.6%
15. COc1ccc(C(=O)n2nc(-c3ccccc3)nc2N)cc1OC  16.6%
16. CCc1nc2nc(C)c(NS(=O)(=O)c3ccc4c(c3)CCCC4)c(=O)n2[nH]1  16.1%
17. Cc1cccc(CS(=O)(=O)c2ncc(CO)n2C)c1  16%
18. Cc1ccc(C(=O)O)cc1N1C(=O)c2cccc3cc(Br)cc(c23)C1=O  15.7%
19. CC(=O)N1CCc2cc(S(=O)(=O)CCC(=O)NCc3ccc(C)o3)ccc21  15%
20. COc1ccc(/C=C(\C#N)C(=O)OCC(=O)N2CC(C)OC(C)C2)cc1 (stereo not shown)  14.6%
21. COCCn1nnnc1SCC(=O)c1ccccc1  14.1%
22. CCCC(NC(=O)c1c(C)noc1C)C12CC3CC(CC(C3)C1)C2 (stereo not shown)  12.9%
23. COc1ccc(NC2CCCN(C(=O)c3ccncc3)C2)cc1 (stereo not shown)  12.6%
24. Cc1ccc(N=C(N)N=C(N)N)c(C)c1  12.5%
25. O=c1[nH]cc(N=Cc2cc([N+](=O)[O-])ccc2O)c(=O)[nH]1  12%
26. COC(=O)C1=C(C)N(C)C(=O)NC1c1ccsc1 (stereo not shown)  11.6%
27. CNS(=O)(=O)c1cccc2cccnc12  11.1%
28. CC(=O)c1ccc(NC(=O)COc2ccccc2C(=O)Nc2ccc(C)cn2)cc1  9.59%
29. COc1ccc(NC(=S)Nc2cc(C)cc(C)n2)cc1OC  9.39%
30. CN1CCSc2ccc(C(=O)Nc3cc(F)ccc3F)cc21  8.15%
31. N#CC1=C(N)c2ccccc2CC12CCCCC2  7.03%
32. Cc1nc2c(C)cccn2c(=O)c1NC(=O)c1ccc2c(c1)OCO2  6.97%
33. Cc1nnc(NC(=O)CSc2ccc3nnc(-c4cccnc4)n3n2)s1  6.27%
34. CS(=O)(=O)c1ccc(C(=O)N(CCc2ccccc2)Cc2ccccc2)cc1  5.56%
35. CN(C(=O)CSc1nnc(-c2ccncc2)n1Cc1ccccc1)C1CCS(=O)(=O)C1 (stereo not shown)  5.46%
36. COc1cc(C(=O)Nc2ccc(C)cn2)c([N+](=O)[O-])cc1OC  4.44%
37. CCNC(=S)NNc1nnc(-c2ccccc2)c(-c2ccccc2)n1  4.26%
38. Cc1cccc2sc(N(CCCN(C)C)C(=O)c3nc4ccccc4s3)nc12.Cl  4.2%
39. C=C(C)CN=C1NN=C(c2cc(C)n(-c3ccc(C)cc3)c2C)CS1  4.06%
40. O=C(NCCO)c1cccc2c1-c1ccccc1C2=O  3.51%
41. CC(=O)c1cccc(NC(=O)c2c(F)c(F)c(F)c(F)c2F)c1  3.41%
42. O=C(Nc1cccc(F)c1)NC1(C(=O)N2CCN3CCCC3C2)CCCCC1 (stereo not shown)  3.39%
43. Cc1ccc(OCCSc2nc3ccccc3n2CC(=O)O)c(C(C)C)c1  2.95%
44. O=C(CCc1nc2sc3c(c2c(=O)[nH]1)CCCC3)N1CCN(c2ccccc2)CC1  2.7%
45. O=C(N/N=C/c1ccccc1O)c1ccncc1  2.66%
46. CCc1c(C)nc(N)n2c(SCC(=O)NC3CCCCC3)nnc12  2.41%
47. Cc1noc(C)c1C(=O)Nc1sc2c(c1C(N)=O)CCC2  1.7%
48. O=C(C[n+]1cccc(NC(=O)c2ccccc2)c1)c1ccc(NC(=O)c2ccccc2)cc1.[Br-]  1.37%
49. COc1ccc(NC(=O)CCCn2cnc3ccccc3c2=O)cc1  1.16%
50. O=C(COC(=O)c1ccc([N+](=O)[O-])cc1Cl)Nc1cccnc1Cl  1.15%
51. CC(=O)Nc1ccc(S(=O)(=O)Nc2nc3ccc(C)cc3s2)cc1  0.462%
52. CCOC(=O)c1c(C)oc2cc(Br)c(OC(C)C(=O)OCC)cc12 (stereo not shown)  -0.807%
53. COc1ccc(-c2coc3cc(O)ccc3c2=O)cc1O  -1.36%
54. O=C(Cn1cc(C(=O)c2ccco2)c2ccccc21)Nc1ccccc1F  -2.42%
55. CS(=O)(=O)N1CCN(c2c(Cl)cccc2[N+](=O)[O-])CC1  -3.53%
56. CC(=O)Nc1ccc(S(=O)(=O)N2CCC(N3CCCCCC3)CC2)cc1.O=C(O)C(=O)O  -3.95%
57. CN(CC(=O)Nc1ccc(F)cc1)C(=O)C1CC(=O)N(Cc2ccccc2)C1 (stereo not shown)  -4.88%
58. CC(C)(C)c1nn(-c2ccccc2)c2[nH]c(=O)c(CNc3ccc4c(c3)OCCO4)cc12  -4.99%
59. CC(C)(C)SCCNC(=O)c1ccccc1  -5.17%
60. CCOC(=O)N1CCN(C(=O)Cc2ccc(-n3c(=O)[nH]c4ccccc4c3=O)cc2)CC1  -5.48%
61. COC(=O)c1ccccc1NC(=O)Cn1cc2c(n1)CCC(C)C2 (stereo not shown)  -5.88%
62. CCOc1ccc(OCCC(=O)N2CCN(S(=O)(=O)c3ccc(F)cc3)CC2)cc1  -6.61%
63. COc1cc(C2N3CC4(C)CN2CC(C)(C3)C4)ccc1O (stereo not shown)  -7.43%
64. O=C(c1cc(Br)ccc1O)N1CCN(S(=O)(=O)Cc2ccccc2)CC1  -8.72%
65. COCCNC(=O)c1ccc(-n2c(SCc3cccnc3)nc3ccccc3c2=O)cc1  -8.88%
66. CC(=O)c1cccc(NC(=O)NC2CC3CCCC(C2)N3CC(C)C)c1 (stereo not shown)  -9.61%
67. Cc1ccc(NC(=O)CCC(=O)NNS(=O)(=O)c2ccccc2)cc1C  -9.66%
68. Cc1cccn2c(=O)c3cc(C(=O)NCCCN4CCCC4=O)n(C)c3nc12  -11.2%
69. CC(C)c1ccc(NC(=O)C2C3C=CC(CC3)C2C(=O)O)cc1 (stereo not shown)  -11.3%
70. Nc1cc(N)nc(SCc2cc([N+](=O)[O-])cc3c2OCOC3)n1  -12.9%
71. COc1ccc(/C=N/NC(=O)c2ccc(COc3cccc4cccnc34)cc2)cc1O  -13.5%
72. Nc1ccc2oc(-c3ccccc3Cl)nc2c1  -16.4%
73. O/N=C1/C2C3C(Br)C4C5CC(C1C53)C24 (stereo not shown)  -16.4%
74. C=CCN(C(=O)c1csnn1)C(C(=O)NCc1ccccc1)c1c(F)cccc1Cl (stereo not shown)  -16.9%
75. Cc1ccc(N(CC#N)C(=O)CS(=O)(=O)c2cccc([N+](=O)[O-])c2)cc1  -17.4%
76. CCN(CC(=O)Nc1ccc(OC)cc1)C(=O)c1ccc(Cl)c(S(=O)(=O)N2CCCC2)c1  -18.1%
77. CCn1cc(CN2CCc3c([nH]c4ccccc34)C2c2cccc(O)c2)c(C)n1 (stereo not shown)  -18.8%
78. COc1ccc(OC)c(-n2nnnc2SCC(=O)NCCc2ccccc2)c1  -20.3%
79. CC(=O)Nc1ccc(S(=O)(=O)N2CCN(C(=O)CCC3CCCC3)CC2)cc1  -21.2%
80. O=C(Nc1nnc(SCc2ccc(Cl)cc2)s1)C1CCCO1 (stereo not shown)  -21.9%
81. Cc1ccc(S(=O)(=O)N(C)C)cc1NC(=O)CSc1ccc2c(c1)OCCO2  -24.1%
82. C(=N\n1cnnc1)/c1ccc(OCc2cccc3ccccc23)cc1  -33.4%
83. CCOC(=O)N1CCN(C(=O)C2CCN(S(=O)(=O)c3ccc(Br)s3)CC2)CC1  -35.2%
84. Cn1c(SCc2ccc(C#N)cc2Cl)nc2ccccc21  -36.5%
85. CCc1ccc(NC(=O)C(C)OC(=O)CCC(=O)c2cccs2)cc1 (stereo not shown)  -40%
86. CN(Cc1cccs1)C(=O)CCNS(=O)(=O)c1ccc(Br)cc1  -42.4%
87. CCCCNCC(O)(c1ccc(Cl)cc1)c1ccc(Cl)cc1  -68%
88. COc1ccc(NC(=O)CN2CCN(S(=O)(=O)N3CCCCCC3)CC2)cc1  -71.7%
